According to the supplement of paper PMC9446081:
Among all 39,000 compounds or so, about 220 (0.56%) showed activity. The list shows a part of the results.

Tested on: Escherichia coli K-12 BW25113
Experiment: relative growth (OD600 normalised to plate interquartile mean) (fraction); higher = less growth inhibition, active = 0.2 or less
Details: 50 µM; LB; incubation time: overnight (16-24 h)
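Further: static incubation at 37 °C against the wild-type strain, values averaged over two biological replicates.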

Structure (SMILES) | relative growth
COc1ccc(S(=O)(=O)N(C)C[C@@H]2Oc3c(NC(=O)c4ccno4)cccc3C(=O)N([C@@H](C)CO)C[C@@H]2C)cc1 | inactive: 0.986
C[C@@H]1CN([C@H](C)CO)C(=O)c2cc(NS(C)(=O)=O)ccc2O[C@H]1CN(C)C(=O)Nc1ccccc1 | inactive: 0.992
CCCN(C)C[C@@H]1OCCCC[C@H](C)Oc2ccc(NC(=O)CCC(F)(F)F)cc2C(=O)N([C@H](C)CO)C[C@@H]1C | inactive: 0.998
C[C@H]1CCCCO[C@H](CN(C)Cc2ccc(C(=O)O)cc2)[C@@H](C)CN([C@@H](C)CO)C(=O)c2cc(NS(=O)(=O)c3ccc(F)cc3)ccc2O1 | inactive: 0.987
C[C@H]1CN([C@@H](C)CO)C(=O)Cc2cc(NC(=O)C3CCCCC3)ccc2O[C@H]1CN(C)Cc1ccc(C(F)(F)F)cc1 | inactive: 1.03
COc1ccc(NC(=O)Nc2ccc3c(c2)C(=O)N([C@H](C)CO)C[C@H](C)[C@H](CN(C)Cc2ccc(C(=O)Nc4ccccc4N)cc2)OCCCC[C@@H](C)O3)cc1 | inactive: 0.978
Cc1noc(C)c1S(=O)(=O)N(C)C[C@@H]1Oc2ccc(NC(=O)Cn3cnnn3)cc2CC(=O)N([C@@H](C)CO)C[C@@H]1C | inactive: 0.979
O=C(C[C@H]1CC[C@@H]2[C@H](COC[C@@H](O)CN2C(=O)c2cnccn2)O1)NCc1ccc(Oc2ccccc2)cc1 | inactive: 0.964
COc1ccc(NC(=O)N(C)C[C@@H]2Oc3ccc(NC(=O)Nc4cccc5ccccc45)cc3CC(=O)N([C@H](C)CO)C[C@@H]2C)cc1 | inactive: 1.01
C[C@@H]1CN([C@@H](C)CO)C(=O)c2cc(NC(=O)NC3CCCCC3)ccc2O[C@@H](C)CCCCO[C@@H]1CN(C)C(=O)CCC(F)(F)F | inactive: 0.987
COc1ccc(NC(=O)Nc2cccc3c2O[C@H](CN(C)Cc2ccc(-c4ccccc4)cc2)[C@H](C)CN([C@H](C)CO)C3=O)cc1 | inactive: 0.849
C/C=C/c1ccc2c(c1)O[C@H](CN(C)S(=O)(=O)c1ccccc1OC)[C@H](C)CN([C@@H](C)CO)S2(=O)=O | inactive: 0.997
COc1cccc(CNC(=O)c2cc3c(c(-c4cccc(-c5ccncc5)c4)n2)[C@@H](CCO)N([S@@](=O)C(C)(C)C)C3)c1 | inactive: 1.04
COc1ccc(NC(=O)Nc2ccc3c(c2)C(=O)N([C@@H](C)CO)C[C@H](C)[C@@H](CN(C)S(=O)(=O)c2c(C)noc2C)OCCCC[C@@H](C)O3)cc1 | inactive: 1.04
C[C@H](O)C#Cc1ccc2c(c1)O[C@H](CN(C)C(=O)c1ccccc1)[C@@H](C)CN([C@H](C)CO)S2(=O)=O | inactive: 1.01
Cc1noc(C)c1S(=O)(=O)Nc1ccc2c(c1)CC(=O)N([C@@H](C)CO)C[C@H](C)[C@@H](CN(C)S(=O)(=O)c1ccc(Cl)cc1)O2 | inactive: 1.01
COc1ccc(CN(C)C[C@@H]2OCCCC[C@@H](C)Oc3ccc(NC(=O)NC(C)C)cc3C(=O)N([C@H](C)CO)C[C@H]2C)cc1 | inactive: 0.977
C[C@@H]1CCCCO[C@@H](CN(C)C(=O)NC2CCCCC2)[C@H](C)CN([C@H](C)CO)C(=O)c2cc(NS(=O)(=O)c3ccc(F)cc3)ccc2O1 | inactive: 0.984
CO[C@@H]1CN(C)C(=O)c2cc(NS(=O)(=O)CC(F)(F)F)ccc2OC[C@H](C)N(Cc2ccccn2)C[C@H]1C | inactive: 1.01
C[C@@H]1CN([C@@H](C)CO)C(=O)c2cc(NC(=O)Nc3ccccc3)ccc2O[C@@H](C)CCCCO[C@@H]1CN(C)Cc1ccc(C(=O)O)cc1 | inactive: 1

Structure (SMILES) | relative growth
C[C@@H]1CCCCO[C@@H](CN(C)Cc2ccc3c(c2)OCO3)[C@@H](C)CN([C@@H](C)CO)C(=O)c2cc(NC(=O)c3ccccc3)ccc2O1 | inactive: 0.981
COC(=O)CCCCCNc1n[nH]c(=O)[nH]c1=O | inactive: 1.03
Cc1ccc(NC(=O)[C@@H]2[C@@H]3CC/C=C\CC/C=C/CC[C@@H]32)cc1C | inactive: 1.01
CS(=O)(=O)c1ccc(O)c(C(=O)O)c1 | inactive: 0.974
CC(C)CC#Cc1ccc2c(c1)O[C@@H](CN(C)CC1CCOCC1)[C@H](C)CN([C@H](C)CO)S2(=O)=O | inactive: 0.964
C[C@@H]1CN([C@H](C)CO)C(=O)c2cccc(NS(C)(=O)=O)c2O[C@H]1CN(C)Cc1ccc2c(c1)OCO2 | inactive: 0.998
CN(C)CC(=O)Nc1ccc2c(c1)C(=O)N(C)[C@H]1CC[C@H](CC(=O)Nc3cccc(Cl)c3)O[C@@H]1CO2 | inactive: 1
Cc1ccc(S(=O)(=O)Nc2ccc3c(c2)C(=O)N([C@@H](C)CO)C[C@H](C)[C@@H](CN(C)C(=O)Nc2ccc4c(c2)OCO4)OCCCC[C@@H](C)O3)cc1 | inactive: 1.01
C[C@H]1CCCCO[C@@H](CN(C)Cc2ccccc2)[C@@H](C)CN([C@@H](C)CO)C(=O)c2cc(NC(=O)Nc3ccc4c(c3)OCO4)ccc2O1 | inactive: 0.976
COc1ccc(S(=O)(=O)Nc2ccc3c(c2)C(=O)N([C@@H](C)CO)C[C@@H](C)[C@@H](CN(C)Cc2ccccc2)OCCCC[C@H](C)O3)cc1 | inactive: 1.01
COc1ccc(S(=O)(=O)N(C)C[C@H]2OCCCC[C@H](C)Oc3ccc(NC(=O)Nc4ccccc4)cc3C(=O)N([C@H](C)CO)C[C@@H]2C)cc1 | inactive: 1.04
C[C@@H]1CN([C@H](C)CO)C(=O)CCCn2cc(nn2)CO[C@@H]1CN(C)C(=O)c1cc(-c2ccccc2)on1 | inactive: 0.989
Cc1ccc(S(=O)(=O)Nc2ccc3c(c2)C(=O)N([C@@H](C)CO)C[C@H](C)[C@H](CN(C)Cc2ccc(C(F)(F)F)cc2)OCCCC[C@H](C)O3)cc1 | inactive: 1.05
C[C@@H]1CCCCO[C@H](CN(C)CC2CCCCC2)[C@H](C)CN([C@H](C)CO)C(=O)c2cc(NC(=O)Nc3ccc4c(c3)OCO4)ccc2O1 | inactive: 1.04
COc1ccc(S(=O)(=O)Nc2ccc3c(c2)CC(=O)N([C@H](C)CO)C[C@H](C)[C@H](CN(C)S(=O)(=O)c2cccs2)O3)cc1 | inactive: 1.02
Cc1cc(C(=O)Nc2cccc3c2O[C@H](CN(C)S(=O)(=O)c2ccc(F)cc2)[C@@H](C)CN([C@H](C)CO)C3=O)n(C)n1 | inactive: 0.985
CC(C(=O)O)c1ccc2c(c1)Cc1cccnc1O2 (centres undefined) | inactive: 0.302
CN(c1cccc(C(N)=O)c1)S(C)(=O)=O | inactive: 0.994
C[C@H](CO)N1C[C@H](C)[C@@H](CN(C)C(=O)CN(C)C)Oc2ncc(C#CC3(O)CCCC3)cc2C1=O | inactive: 0.982
CS(=O)(=O)N1C[C@H](O)COC[C@H]2O[C@@H](CC(=O)NCc3ccccc3)CC[C@@H]21 | inactive: 0.998

Structure (SMILES) | relative growth
C[C@@H]1CN([C@H](C)CO)C(=O)c2cccc(NC(=O)Nc3ccc(F)cc3)c2O[C@H]1CN(C)Cc1ccc(-c2ccccc2)cc1 | inactive: 0.977
C[C@H]1CCCCO[C@@H](CN(C)C(=O)Nc2ccc3c(c2)OCO3)[C@@H](C)CN([C@@H](C)CO)C(=O)c2cc(NS(=O)(=O)c3cccs3)ccc2O1 | inactive: 0.999
Cc1noc(C)c1NC(=O)Nc1ccc2c(c1)C(=O)N([C@@H](C)CO)C[C@@H](C)[C@H](CN(C)C(=O)Nc1cccc3ccccc13)OCCCC[C@H](C)O2 | inactive: 1.04
O=C1NCCN1c1ncc([N+](=O)[O-])s1 | active: 0.0407
C[C@@H]1CN([C@H](C)CO)C(=O)c2cc(NS(=O)(=O)c3cn(C)cn3)ccc2O[C@H]1CN(C)S(=O)(=O)c1cn(C)cn1 | inactive: 0.893
COc1cc(C(=O)O)ccc1NC(=O)[C@@H]1N[C@@H](CC(C)(C)C)[C@](C#N)(c2ccc(Cl)cc2F)[C@H]1c1cccc(Cl)c1F | inactive: 1.01
CO[C@@]1(CNS(C)(=O)=O)CCSC1 | inactive: 0.965
Cc1c(C)c(C)c(CSc2ccccc2N)c(C)c1C | inactive: 1.01
C[C@H](CO)N1C[C@H](C)[C@H](CN(C)S(=O)(=O)c2ccc(F)cc2)Oc2ccc(NC(=O)c3ccncc3)cc2C1=O | inactive: 0.899
Cc1ccc(S[C@]2(C(=O)NCc3ccccc3)CC(=O)N(C3CCCCC3)[C@@H]2c2ccc(CO)cc2I)cc1 | inactive: 1.02
Cc1ccc(S(=O)(=O)Nc2cccc3c2O[C@@H](CN(C)CC2CC2)[C@@H](C)CN([C@H](C)CO)C3=O)cc1 | inactive: 1.01
C=CCCN(CC#C[C@H]1Oc2ccccc2S(=O)(=O)N2CCC[C@@H]12)S(=O)(=O)c1ccc(C)cc1 | inactive: 0.97
CC(C)(C)OC(=O)C[C@H]1C/C=C/CC[C@H](Cc2ccc(F)cc2)C(=O)O[C@H](c2ccccc2)CNC1=O | inactive: 1.01
Cc1nnc2sc(=S)[nH]n2c1=O | inactive: 0.999
C[C@H]1CN([C@@H](C)CO)C(=O)Cc2cc(NC(=O)Nc3ccc(Cl)c(Cl)c3)ccc2O[C@H]1CN(C)S(=O)(=O)c1ccc(Oc2ccccc2)cc1 | inactive: 1.01
Cn1cccc1[C@@H](CN)N1CCc2ccccc2C1 | inactive: 1.01
C[C@@H]1CCCCO[C@@H](CN(C)C(=O)Nc2ccccc2)[C@H](C)CN([C@@H](C)CO)C(=O)c2cc(NC(=O)Nc3ccc(F)cc3)ccc2O1 | inactive: 1.05
C[C@@H]1CN([C@@H](C)CO)C(=O)c2cccc(NC(=O)c3ccc(-c4nccs4)cc3)c2O[C@H]1CN(C)Cc1ccc(Cl)c(Cl)c1 | inactive: 1.03
COc1ccc(NC(=O)N(C)C[C@@H]2Oc3ccc(NC(=O)Nc4ccc(C(F)(F)F)cc4)cc3C(=O)N([C@H](C)CO)C[C@H]2C)cc1 | inactive: 1
